According to patent US20220053773A1 (priority 2018, published 2022):
Bridge positions count the residues as written; N and C are the ends. Ends that are not written are not given here. Peptide text beside a SMILES is read from it.

Conditions: FIG. 8

| Molecule | phytotoxicity |
| --- | --- |
| CC[C@H](C)[C@H](NC(=O)[C@H](CCCCN)NC(=O)[C@H](CC(C)C)NC(=O)[C@@H]1CSSC[C@H](NC(=O)[C@H](CC(C)C)NC(=O)[C@H](CCCCN)NC(=O)[C@@H](NC(=O)[C@@H](N)CC(C)C)[C@@H](C)CC)C(=O)N[C@@H](CCCCN)C(=O)N[C@@H](CCCCN)C(=O)N[C@@H]([C@@H](C)CC)C(=O)N[C@@H](CC(C)C)C(=O)N[C@@H](CCCCN)C(=O)N[C@@H](CCCCN)C(=O)NCC(=O)N2CCC[C@H]2C(=O)NCC(=O)N[C@@H](CCCNC(=N)N)C(=O)N[C@@H](CCCCN)C(=O)N[C@@H](CCCCN)C(=O)N[C@@H](CC(C)C)C(=O)N[C@@H]([C@@H](C)CC)C(=O)N[C@@H](CCCCN)C(=O)N[C@@H](CCCCN)C(=O)N1)C(=O)N[C@@H](CC(C)C)C(=O)O [CYS26P] (H-LIKLCKKILKKGPGRKKLIKKCLKIL-OH; disulfide 5-22) | low phytotoxcicity |
| LIKLIKKILKKGPGRKKLIKKILKILGPGR [Peptide P30] | low phytotoxcicity |
